Assay results: the supplement of paper PMC8728848
Some of the results follow.

How the values were obtained:
Assay in all cases: glycan array binding signal (z-score within array); higher = stronger binding
Conditions in all cases: glycan notation: IUPAC condensed, linker removed
[1] = target: GalNAc(b1-4)GlcNAc(b1-2)Man
In short: (§1)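 The binding signal is a Z-score computed within each array and averaged over linkers. Arrays of the same protein sequence at different concentrations or buffers were also averaged together. Data originate from 3228 arrays in the Consortium for Functional Glycomics database, kept only where the protein sequence was available.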

[2] = target: GalNAc(b1-4)GlcNAc(b1-2)Man(a1-3)[GalNAc(b1-4)GlcNAc(b1-2)Man(a1-6)]Man(b1-4)GlcNAc(b1-4)GlcNAc
In short: as §1

[3] = target: GalNAc(b1-4)GlcNAc(b1-3)GalNAc(b1-4)GlcNAc
In short: as §1

GalNAc(b1-4)GlcNAc6S = target: GalNAc(b1-4)GlcNAc6S
In short: as §1

GalNAc(b1-6)GalNAc = target: GalNAc(b1-6)GalNAc
In short: as §1

GalNAc3S(b1-4)GlcNAc = target: GalNAc3S(b1-4)GlcNAc
In short: as §1

GalNAc3S(b1-4)GlcNAc3S = target: GalNAc3S(b1-4)GlcNAc3S
In short: as §1

[4] = target: GalNAc3S(b1-4)[Fuc(a1-3)]GlcNAc
In short: as §1

GalNAc4S6S(b1-4)GlcNAc = target: GalNAc4S6S(b1-4)GlcNAc
In short: as §1

GalNAc6S(b1-4)GlcNAc = target: GalNAc6S(b1-4)GlcNAc
In short: as §1

Glc(a1-4)Glc = target: Glc(a1-4)Glc
In short: as §1

[5] = target: Glc(a1-4)Glc(a1-4)Glc(a1-4)Glc
In short: as §1

Glc(a1-6)Glc(a1-6)Glc = target: Glc(a1-6)Glc(a1-6)Glc
In short: as §1

[6] = target: Glc(a1-6)Glc(a1-6)Glc(a1-6)Glc
In short: as §1

Glc(b1-4)Glc = target: Glc(b1-4)Glc
In short: as §1

Glc(b1-6)Glc = target: Glc(b1-6)Glc
In short: as §1

GlcA(b1-3)Gal = target: GlcA(b1-3)Gal
In short: as §1

GlcA(b1-3)GlcNAc = target: GlcA(b1-3)GlcNAc
In short: as §1

GlcA(b1-6)Gal = target: GlcA(b1-6)Gal
In short: as §1

[7] = target: GlcA3S(b1-3)Gal(b1-4)GlcNAc(b1-2)Man
In short: as §1

[8] = target: GlcA3S(b1-3)Gal(b1-4)GlcNAc(b1-3)Gal(b1-4)Glc
In short: as §1

[9] = target: GlcNAc(a1-3)Gal(b1-4)GlcNAc
In short: as §1

[10] = target: GlcNAc(a1-4)Gal(b1-3)GlcNAc
In short: as §1

[11] = target: GlcNAc(a1-4)Gal(b1-4)GalNAc
In short: as §1

[12] = target: GlcNAc(a1-4)Gal(b1-4)GlcNAc
In short: as §1

[13] = target: GlcNAc(a1-4)Gal(b1-4)GlcNAc(b1-3)Gal(b1-4)Glc
In short: as §1

[14] = target: GlcNAc(a1-4)Gal(b1-4)GlcNAc(b1-3)Gal(b1-4)GlcNAc
In short: as §1

[15] = target: GlcNAc(a1-4)Gal(b1-4)GlcNAc(b1-3)Gal(b1-4)GlcNAc(b1-3)Gal(b1-4)GlcNAc
In short: as §1

[16] = target: GlcNAc(a1-4)Gal(b1-4)GlcNAc(b1-3)Gal(b1-4)[Fuc(a1-3)]GlcNAc(b1-3)Gal(b1-4)[Fuc(a1-3)]GlcNAc
In short: as §1

[17] = target: GlcNAc(a1-6)Gal(b1-4)GlcNAc
In short: as §1

[18] = target: GlcNAc(b1-2)Gal(b1-3)GalNAc
In short: as §1

[19] = target: GlcNAc(b1-2)Man(a1-3)[GlcNAc(b1-2)Man(a1-6)]Man(b1-4)GlcNAc(b1-4)GlcNAc
In short: as §1

[20] = target: GlcNAc(b1-2)Man(a1-3)[GlcNAc(b1-2)Man(a1-6)]Man(b1-4)GlcNAc(b1-4)[Fuc(a1-6)]GlcNAc
In short: as §1

[21] = target: GlcNAc(b1-2)Man(a1-3)[GlcNAc(b1-4)][GlcNAc(b1-2)Man(a1-6)]Man(b1-4)GlcNAc(b1-4)GlcNAc
In short: as §1

[22] = target: GlcNAc(b1-2)Man(a1-3)[GlcNAc(b1-4)][GlcNAc(b1-2)Man(a1-6)]Man(b1-4)GlcNAc(b1-4)[Fuc(a1-6)]GlcNAc
In short: as §1

[23] = target: GlcNAc(b1-2)[GlcNAc(b1-4)]Man(a1-3)[GlcNAc(b1-2)Man(a1-6)]Man(b1-4)GlcNAc(b1-4)GlcNAc
In short: as §1

[24] = target: GlcNAc(b1-2)[GlcNAc(b1-4)]Man(a1-3)[GlcNAc(b1-4)][GlcNAc(b1-2)Man(a1-6)]Man(b1-4)GlcNAc(b1-4)GlcNAc
In short: as §1

[25] = target: GlcNAc(b1-2)[GlcNAc(b1-4)]Man(a1-3)[GlcNAc(b1-4)][GlcNAc(b1-2)[GlcNAc(b1-6)]Man(a1-6)]Man(b1-4)GlcNAc(b1-4)GlcNAc
In short: as §1

[26] = target: GlcNAc(b1-2)[GlcNAc(b1-4)]Man(a1-3)[GlcNAc(b1-4)][GlcNAc(b1-2)[GlcNAc(b1-6)]Man(a1-6)]Man(b1-4)GlcNAc(b1-4)[Fuc(a1-6)]GlcNAc
In short: as §1

[27] = target: GlcNAc(b1-2)[GlcNAc(b1-6)]Man(a1-6)[GlcNAc(b1-2)Man(a1-3)]Man(b1-4)GlcNAc(b1-4)GlcNAc
In short: as §1

[28] = target: GlcNAc(b1-2)[GlcNAc(b1-6)]Man(a1-6)[GlcNAc(b1-2)Man(a1-3)]Man(b1-4)GlcNAc(b1-4)[Fuc(a1-6)]GlcNAc
In short: as §1

[29] = target: GlcNAc(b1-2)[GlcNAc(b1-6)]Man(a1-6)[GlcNAc(b1-4)][GlcNAc(b1-2)Man(a1-3)]Man(b1-4)GlcNAc(b1-4)GlcNAc
In short: as §1

GlcNAc(b1-3)Fuc = target: GlcNAc(b1-3)Fuc
In short: as §1

GlcNAc(b1-3)Gal = target: GlcNAc(b1-3)Gal
In short: as §1

[30] = target: GlcNAc(b1-3)Gal(b1-3)GalNAc
In short: as §1

B1: FimA-N1 (Actinomyces oris) (protein)
chain: MHHHHHHSSGVDLGTENLYFQSNATETPNYGNIKTDATGSLVIHKHLTGGGKDIGTPTGTAQNADDKGPAVEGVVFTAYPITDINLKDPAGWDTISNLSRTGVPDSACANPAAPTLGAHQFGTPKVSPATTKEGLATITEMPVQAYLVCETTTPGDIVQKAKPFVVTIPHPNTAAGADGQWIYDVNVYPKNEAIDVDKTIQAQK
- glycan array binding signal (z-score) [1]: -0.366
- glycan array binding signal (z-score) [2]: 0.025
- glycan array binding signal (z-score) [3]: -0.177
- glycan array binding signal (z-score) (GalNAc(b1-4)GlcNAc6S): -0.089
- glycan array binding signal (z-score) (GalNAc(b1-6)GalNAc): -0.173
- glycan array binding signal (z-score) (GalNAc3S(b1-4)GlcNAc): 0.036
- glycan array binding signal (z-score) (GalNAc3S(b1-4)GlcNAc3S): -0.16
- glycan array binding signal (z-score) [4]: -0.281
- glycan array binding signal (z-score) (GalNAc4S6S(b1-4)GlcNAc): -0.173
- glycan array binding signal (z-score) (GalNAc6S(b1-4)GlcNAc): 0.08
- glycan array binding signal (z-score) (Glc(a1-4)Glc): -0.147
- glycan array binding signal (z-score) [5]: -0.353
- glycan array binding signal (z-score) (Glc(a1-6)Glc(a1-6)Glc): -0.196
- glycan array binding signal (z-score) [6]: -0.176
- glycan array binding signal (z-score) (Glc(b1-4)Glc): -0.344
- glycan array binding signal (z-score) (Glc(b1-6)Glc): -0.022
- glycan array binding signal (z-score) (GlcA(b1-3)Gal): 0.041
- glycan array binding signal (z-score) (GlcA(b1-3)GlcNAc): 0.157
- glycan array binding signal (z-score) (GlcA(b1-6)Gal): -0.119
- glycan array binding signal (z-score) [7]: -0.364
- glycan array binding signal (z-score) [8]: -0.014
- glycan array binding signal (z-score) [9]: -0.349
- glycan array binding signal (z-score) [10]: -0.336
- glycan array binding signal (z-score) [11]: -0.382
- glycan array binding signal (z-score) [12]: -0.509
- glycan array binding signal (z-score) [13]: -0.076
- glycan array binding signal (z-score) [14]: -0.357
- glycan array binding signal (z-score) [15]: -0.152
- glycan array binding signal (z-score) [16]: 0.476
- glycan array binding signal (z-score) [17]: -0.193
- glycan array binding signal (z-score) [18]: -0.284
- glycan array binding signal (z-score) [19]: 0.007
- glycan array binding signal (z-score) [20]: -0.346
- glycan array binding signal (z-score) [21]: -0.095
- glycan array binding signal (z-score) [22]: -0.505
- glycan array binding signal (z-score) [23]: -0.244
- glycan array binding signal (z-score) [24]: -0.313
- glycan array binding signal (z-score) [25]: -0.325
- glycan array binding signal (z-score) [26]: -0.556
- glycan array binding signal (z-score) [27]: -0.228
- glycan array binding signal (z-score) [28]: 0.206
- glycan array binding signal (z-score) [29]: -0.496
- glycan array binding signal (z-score) (GlcNAc(b1-3)Fuc): -0.329
- glycan array binding signal (z-score) (GlcNAc(b1-3)Gal): -0.237
- glycan array binding signal (z-score) [30]: 0.195
